The source of these data is PMC6356061, “Clustering of Tau fibrils impairs the synaptic composition of α3‐Na^+/K^+‐ATPase and AMPA receptors” (The EMBO Journal, 2019).

The target in series [1] is T1, AMPA receptor GluA2 subunit (mouse (endogenous in primary cortical …, UniProt P23819)).
T1 construct: glutamate receptor 2 (AMPA receptor subunit GluA2), mouse, endogenous in cortical neuron cultures; Identified by MS search against SwissProt Rodentia; also called GluA2-AMPA receptor; source: endogenous, mouse primary cortical neurons (exposed live to the fibrils, then lysed)
Description: co-IP; extracts of neurons exposed 10 min to 14.4 nM biotinylated Fib-Tau; immunoprecipitation with anti-α3-NKA, anti-GluA2 or anti-GluN1 and protein G magnetic beads, 4°C; Fib-Tau detected on slot blot with streptavidin-HRP; controls with pre-immune goat or rabbit IgG. To be noted: one partner purified.

Series [2] concerns the target T2, Na+/K+-ATPase (NKA) α3 subunit (mouse (endogenous in primary cortical …, UniProt Q6PIC6)).
T2 construct: sodium/potassium-transporting ATPase subunit alpha-3, mouse, endogenous in cortical neuron cultures; Identified by MS search against SwissProt Rodentia; also called α3-NKA; source: endogenous, mouse primary cortical neurons (exposed live to the fibrils, then lysed)
Described as above. To be noted: one partner purified.

Series [3] concerns the molecule itself. Description: quantitative transmission electron microscopy; Tau fibrils spun onto carbon-coated grids, negatively stained; length of 838 fibrils and average diameter measured; number of monomers calculated from the fibril volume.
Series [4] deals with the molecule itself. Description: AUC; sedimentation velocity of fragmented Fib-Tau, 40 uM equivalent monomeric Tau in PBS, 16,364 x g, 20°C, absorbance at 280 nm, ls-g*(s) in Sedfit; fibrils assembled with heparin; size of the fibril particle.

T1 sequence (P23819 25-883): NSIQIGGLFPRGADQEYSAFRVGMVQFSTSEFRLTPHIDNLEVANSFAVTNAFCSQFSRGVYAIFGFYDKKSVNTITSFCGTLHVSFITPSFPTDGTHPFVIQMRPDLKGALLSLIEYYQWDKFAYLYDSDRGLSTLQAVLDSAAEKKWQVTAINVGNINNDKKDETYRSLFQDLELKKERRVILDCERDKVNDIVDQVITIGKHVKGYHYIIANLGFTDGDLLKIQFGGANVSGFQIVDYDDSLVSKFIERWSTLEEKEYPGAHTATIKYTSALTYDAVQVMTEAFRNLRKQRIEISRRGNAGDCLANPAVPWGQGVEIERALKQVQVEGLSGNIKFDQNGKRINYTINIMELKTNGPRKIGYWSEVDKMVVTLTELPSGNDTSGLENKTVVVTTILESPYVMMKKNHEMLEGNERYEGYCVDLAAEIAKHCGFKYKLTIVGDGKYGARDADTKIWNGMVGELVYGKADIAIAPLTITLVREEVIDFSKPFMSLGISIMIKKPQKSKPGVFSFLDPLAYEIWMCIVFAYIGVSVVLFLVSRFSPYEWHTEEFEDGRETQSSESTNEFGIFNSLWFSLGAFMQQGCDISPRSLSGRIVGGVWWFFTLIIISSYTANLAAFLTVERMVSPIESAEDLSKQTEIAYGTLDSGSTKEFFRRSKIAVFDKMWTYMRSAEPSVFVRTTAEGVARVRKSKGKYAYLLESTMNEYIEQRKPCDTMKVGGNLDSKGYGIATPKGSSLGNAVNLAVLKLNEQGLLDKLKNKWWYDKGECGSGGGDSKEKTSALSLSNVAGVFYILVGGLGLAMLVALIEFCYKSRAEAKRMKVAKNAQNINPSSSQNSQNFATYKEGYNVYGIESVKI

B1: Biotin-labelled fibrillar Tau-1N3R (Fib-Tau-1N3R) (natural protein)
chain: not shown
modifications: biotin (EZ-Link-Sulfo-NHS-S-S-Biotin, 10 molar equivalents), 3 to 4 biotin molecules on average
notes: microtubule-associated protein Tau, human, wild-type, isoform 1N3R, 381 amino acid residues; Fibrillar assembly; In the imaging experiments (functional rows) the fibrils carried ATTO dyes or no label instead of biotin; also called biotin-Fib-Tau; Tau-1N3R fibrils; source: recombinant, expressed and purified as described previously (Tardivel et al, 2016); fibrillated at 40 uM with 10 uM heparin, …
Regarding B1, the “fold enrichment in Tau band intensity over pre-immune IgG control” value in series [1] was determined as 2.3 fold; in series [2], 2.4 fold.

B2: Fragmented fibrillar Tau-1N3R (Fib-Tau 1N3R) as used to determine the particle concentration (natural protein)
chain: not shown
notes: microtubule-associated protein Tau, human, wild-type, isoform 1N3R, 381 amino acid residues; also called Tau fibrils; source: recombinant, expressed and purified as described previously (Tardivel et al, 2016); fibrillated at 40 uM with 10 uM heparin, fragmented by sonication
Turning to B2, the figures for the “stoichiometry N” value in series [3] and in series [4] were 136 monomers and around 137 monomers, respectively.
